# The other results are listed elsewhere or left out.
# T1: UNK ZnF1-3 (human, UniProt Q9C0B0 31-174)
# T1 sequence: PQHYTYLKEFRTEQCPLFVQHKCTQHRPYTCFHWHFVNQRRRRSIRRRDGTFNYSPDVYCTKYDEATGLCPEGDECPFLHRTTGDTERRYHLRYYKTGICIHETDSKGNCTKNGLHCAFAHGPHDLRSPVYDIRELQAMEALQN
# B1: chr7:75932113:75932114:+_ENSG00000106211_ENST00000248553|hu_hu|motif|central (ssRNA)
# RNA: GGGAGUUCUACAGUCCGACGAUCCUGCGACCACUCCUCCGGCAGCCGGGGCAGCCCGAAGGCCUGGUCGAAGAGGCGGCGGUGCGGGUACCAGUCGCGGAAGGGGUCCCAGCUGGGGCCCCGCAGGAGCGAGAAGGGGACGCGCAACAGAGGAUUGAGCAUCA
# B2: 88893258_88893618_1652_CDS_ENSMUSG00000041263_ENSMUST00000052539|mouse|control|control (ssRNA)
# RNA: GGGAGUUCUACAGUCCGACGAUCAUCCCCCAAUUGAGCCUUCUGAACCAAGUUCCUAGCAGCCCCAAAAUGCGAGAUGAUUUUGUCCACUGAAGCGCUGACAGCUAUCAGGAGACCUUUCUUCUGCUCCUGCAGCUGGCCAGUCAACAGAGGAUUGAGCAUCA
# B3: chr17:48772226:48772227:-_ENSG00000154945_ENST00000285243|hu_mus|FALSE|FALSE (ssRNA)
# RNA: GGGAGUUCUACAGUCCGACGAUCUAAAAUUGAACAAUUUGUUUAUAAAAGCAACAGAUUCCAGAGUUAUGUAAAAACCCUAAUAAUUUUCAAAAUAACCUUUAUCUUUGAUACAAAAAUAAAGAUGCUAACUCCUUUAGUUCACAACAGAGGAUUGAGCAUCA
# B4: 103084259_103114241_1104_3pUTR_ENSMUSG00000033014_ENSMUST00000106860|mouse|control|control (ssRNA)
# RNA: GGGAGUUCUACAGUCCGACGAUCAUUACACCAACUUGCUGGACGUCACCGUUGCUGCCCCCAGGGAUGGGCACGCUGAGCUGGCGCUCCGGCUCCGGCAGACAGCGCAGGCAGAAGGAGUGCAGGCAGGGGAGCAGCUUGGGCCAACAGAGGAUUGAGCAUCA
# B5: chr12:39756943:39756944:-_ENSG00000139116_ENST00000544797|hu_mus|hu_hu_hu_mus_False|48_108 (ssRNA)
# RNA: GGGAGUUCUACAGUCCGACGAUCGGUUUGGCUAUUACCCCCAAGGGAAUCCUGCAAGAGUCUUGUCAGCUUAGAGUCUCUGUAAGGGACAUGUGUGGCUCUCUUGCUCUUGUCCCCCAAGGCGCUGAUUACAUUCCCAAGAGCCAACAGAGGAUUGAGCAUCA
# B6: chr5:128440902:128440903:+_ENSG00000066583_ENST00000173527|hu_mus|hu_hu_hu_mus_True|8_38 (ssRNA)
# RNA: GGGAGUUCUACAGUCCGACGAUCUUGAACGGUGCUGCCAAGUCCUUUGGGGUAUUGUUCCGUUAUGAUAACUGGAAUCCCUAAGAUCCGAGCUCCUUGCAACAAUCUCUGUCCCACACUAAUGAUGUCCCCAAAAUAUUUGAUCAACAGAGGAUUGAGCAUCA
# B7: chr14:76904540:76904541:+_ENSMUSG00000022010_ENSMUST00000022587|mus_mus|motif|central (ssRNA)
# RNA: GGGAGUUCUACAGUCCGACGAUCAAAGAAAUGGAAAAAUGUCUCAGUUGGUAAACUCCUAGAUCCAUCGCCACUGGUCGGCACCAUUGGGAUUUCAUGCAAUUGCAGCCAAAUUAAAAAAACAGCCCCGUGGAAAAAAAAGAGCAACAGAGGAUUGAGCAUCA
# B8: chr4:95690885:95690886:+_ENSMUSG00000028572_ENSMUST00000156910|mus_mus|mus_mus_mus_hu_False|78_108 (ssRNA)
# RNA: GGGAGUUCUACAGUCCGACGAUCUUUAUUUUUAGAAAAAUACCAUGCUAAAAUAUUGUAAUUUUAAUAUUUUAUUUUACCAGAAGUCACAGGCAAGCAGACACUACAAGAAUAUAUGAAAAUGAAACUCAACAAUAUAACUGUCAACAGAGGAUUGAGCAUCA
# B9: chr11:75505782:75505783:+_ENSMUSG00000017776_ENSMUST00000017920|mus_hu|motif|central (ssRNA)
# RNA: GGGAGUUCUACAGUCCGACGAUCCGCCUCCUCCUGCCUGAGAAUCACUCCACUACCCUGCCUGGAUCUGGAAACUGGUUCGGUCAACGUUGUAGUGUCCAAAUAGUGUAUUUUGUAGAAUUCCAGUAAAGCAGGCAAUGAAUCCAACAGAGGAUUGAGCAUCA
# B10: chr1:169100823:169100824:+_ENSG00000143153_ENST00000367816|hu_hu|motif|central (ssRNA)
# RNA: GGGAGUUCUACAGUCCGACGAUCUUGUUCAAGACUAGUAGGUUUUUGUUUUUGUAUCUUUUUUUAACUUAUUAAAUGGCGGGUGGGAAAGAUUUGUGCUUGUGAUCAGCUCUUAACUUCAAUUUUUACAUCAAAACGUCCCUGCAACAGAGGAUUGAGCAUCA
# B11: chr7:151048522:151048523:+_ENSG00000013374_ENST00000566856|hu_mus|hu_hu_hu_mus_True|98_98 (ssRNA)
# RNA: GGGAGUUCUACAGUCCGACGAUCCUGUUUCUUAUUUAUGACAAUUUUGAUGUAAUUUUCUUGAAAUCCGAAAGUUUCAGCUAUUUGACACCUCAGGUCUCUACCAGUGACAUGCAAGCGGGUCUCCAACAAGCUUUUCUUAUCCAACAGAGGAUUGAGCAUCA
# B12: chr3:179287964:179287965:+_ENSG00000136518_ENST00000429709|hu_hu|hu_hu_hu_mus_True|1_38 (ssRNA)
# RNA: GGGAGUUCUACAGUCCGACGAUCCUUGAGUGGUGAGAUGGCCUCCAUGUUCUCCCUGGGCACGCGGAGGGCAUUGGUGUCUAUGUAGUAGGUGGGCCCGCCUUGUUUGCCUUUGUCACCAUCAAUCUCCAUCAUUGUGCUUCCCAACAGAGGAUUGAGCAUCA
# B13: chr8:104447970:104447971:+_ENSG00000164934_ENST00000297579|hu_hu|hu_hu_hu_mus_False|8_78 (ssRNA)
# RNA: GGGAGUUCUACAGUCCGACGAUCAUACACUUCCCUGCUUCGGCUCUUGUCCACAGGAAAGAUUCGAAUAGACUUAUCAAAGCUGGCAGACACAAAUUCCUUCCCAGUGGGAGAGUAGUCCACAUCAAGCACUGCAGACACGUGCAACAGAGGAUUGAGCAUCA
# B14: chr1:163117127:163117128:-_ENSG00000143248_ENST00000313961|hu_mus|hu_hu_hu_mus_False|58_108 (ssRNA)
# RNA: GGGAGUUCUACAGUCCGACGAUCUGCGGGUUAUUAUGUAACUCAACUCACAGGGCAACUUUUGGAAGCCUGACCAGAUUACUACUUGAUUAGCUCCUUAUAAAAUUCAGAGCGCACAAAGCGGGGCAGAGAAUCCUUCUCCAUCAACAGAGGAUUGAGCAUCA
# Target: T1, UNK ZnF1-3
# Assay: nsRBNS (natural sequence RNA bind-n-seq); RBNS binding buffer (assumed for nsRBNS): 25 mM Tris pH 7.5, 150 mM KCl, 3 mM MgCl2, 0.01% Triton X-100, 500 ug/ml BSA, 20 U/ml SUPERase-In, 4 C; UNK is unkempt and MSI1 is Musashi-1; names of the RNAs are library labels; protein concentration not given here; high values mean tight binding
row,Binder,binding signal
1,B1,0.648 enrichment R
2,B2,0.717 enrichment R
3,B3,1.67 enrichment R
4,B4,1.1 enrichment R
5,B5,0.672 enrichment R
6,B6,0.86 enrichment R
7,B7,2.65 enrichment R
8,B8,2.77 enrichment R
9,B9,1.08 enrichment R
10,B10,1.11 enrichment R
11,B11,0.748 enrichment R
12,B12,0.593 enrichment R
13,B13,1.07 enrichment R
14,B14,0.872 enrichment R

# — publication PMC12136788
